Literature values as cited in article PMC11006913.
The other results are listed elsewhere or left out.

Target: HOXD13 I322L (Homo sapiens) (UniProt P35453)
Details: PBM; conditions not shown; double strand, one strand shown; scale: upbm affinity estimate (log intensity, higher = more binding, comparable within an allelic series)

Sequence of UniProt P35453 (P35453 263-343 I322L): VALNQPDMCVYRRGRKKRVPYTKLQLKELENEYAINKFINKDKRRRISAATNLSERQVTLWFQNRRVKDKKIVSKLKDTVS

**Q.** For ATTTTACA [8-mer ATTTTACA], which binding signal is on record?
**A.** 12

**Q.** For CTCGTGAA [8-mer CTCGTGAA], which binding signal is on record?
**A.** 12

**Q.** Which binding signal does the source give for TATTTAAA [8-mer TATTTAAA] here?
**A.** 12.1

**Q.** For GTAAAGGA [8-mer GTAAAGGA], which binding signal is on record?
**A.** 10.8

**Q.** Which binding signal does the source give for CTGTTAAA [8-mer CTGTTAAA] here?
**A.** 11.9

**Q.** For CGCGTAAA [8-mer CGCGTAAA], which binding signal is on record?
**A.** 12

**Q.** For ACTGTAAA [8-mer ACTGTAAA], which binding signal is on record?
**A.** 11.9

**Q.** Which binding signal does the source give for TCTCGTAA [8-mer TCTCGTAA] here?
**A.** 12.4

**Q.** With GGTTAAAC [8-mer GGTTAAAC] as the sequence, how does the binding signal read?
**A.** 10.8

**Q.** Which binding signal does the source give for GTTAACTA [8-mer GTTAACTA] here?
**A.** 11.8

**Q.** For CGAGTAAA [8-mer CGAGTAAA], which binding signal is on record?
**A.** 10.7

**Q.** Which binding signal does the source give for CTCGTATA [8-mer CTCGTATA] here?
**A.** 11.9

**Q.** With GTTGTTAA [8-mer GTTGTTAA] as the sequence, how does the binding signal read?
**A.** 11.9

**Q.** Which binding signal does the source give for AGTTTACC [8-mer AGTTTACC] here?
**A.** 10.8

**Q.** With CATTAAAA [8-mer CATTAAAA] as the sequence, how does the binding signal read?
**A.** 11.9
